Here are results for 56 sequences from the supplement of paper PMC11417369.

± gives the standard deviation of the averaged measurements. The list shows a part of the results.

This test relates to PfAP2-G AP2 domain (GST-tagged). The test can be described thus: gcPBM binding intensity (ln(normalized median fluorescence intensity)); higher = stronger DNA binding. The gist of the method:
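In this array assay, P. falciparum DNA-binding domains with a GST tag, expressed in E. coli, were applied for 1 h to primer-extended double-stranded 36-bp intergenic genomic probes and negative controls on an Agilent 4 × 180k array. Bound protein was visualised with Alexa488 anti-GST antibody at 488 nm. Binding intensity is the highest Masliner-normalised natural-log median intensity across replicate spots of either probe orientation.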
For the sequence “ATAATAATATAAAATACACACCTATTATTTTTACAA [CACACA_site6069]”, the “gcPBM binding intensity (ln)” value was determined as 9.86 ± 0.071.

In the case of “TATAATATATATATATGTACATATTATTTACATATA [XGTACX_site7312]”, the “gcPBM binding intensity (ln)” value worked out at 11.2 ± 0.71.

As for “AAAAAAAAAAAAAAGAGTACATTTATTTATATATCT [XGTACX_site2381]”, the “gcPBM binding intensity (ln)” value amounted to 11.5 ± 0.88.

Turning to “TGTTTAACACATGTTTCAAACAAAAAAAAAAAGACA [CACACA_negctrl_site1356]”, the “gcPBM binding intensity (ln)” value came to 10.1 ± 0.28.

Take “AATATATTAAATCTTACACACTAAAAAATATGTAAC [CACACA_site4325]”: the “gcPBM binding intensity (ln)” value amounted to 9.88 ± 0.085.

“TTTTAACATAGAAGTACACACATATAATCAATCATA [CACACA_site5313]”: the “gcPBM binding intensity (ln)” value worked out at 11.4 ± 0.88.

With “AAGAATTATATATTCACACAAAAAAAAAGTAAAAGA [CACACA_site5335]”, the “gcPBM binding intensity (ln)” value came to 10.04 ± 0.028.

With “TTTTAAATTTTTTAAAGTACACGTCGAAAAGGTATA [XGTACX_site76]”, the “gcPBM binding intensity (ln)” value amounted to 11.4 ± 1.1.

For the sequence “AAAACAGACAAACACACACACACATATATATATATA [CACACA_site3393]”, the “gcPBM binding intensity (ln)” value is 10.1 ± 0.25.

With “CTTTTAATTATAAAATGTACTTAAAAATAATAATAC [XGTACX_site635]”, the “gcPBM binding intensity (ln)” value stood at 11.1 ± 0.88.

On to “TTATCCCCCTATCATTGTACATTAATACAAACTAAA [XGTACX_site5630]”, for which the “gcPBM binding intensity (ln)” value was 11.5 ± 0.95.

In the case of “AAAATGAAACAAATATGTACACATATAAATATTTCC [XGTACX_site54]”, the “gcPBM binding intensity (ln)” value turned out to be 11.3 ± 0.69.

On to “TTAATTTTTGAAGGTACACACTAATATATTAAATAT [CACACA_site4791]”, for which the “gcPBM binding intensity (ln)” value came out at 11.2 ± 0.79.

With “AAATATATACTACCGATGCACTAAATATAAACACAT [GTGCAC_site9777]”, the “gcPBM binding intensity (ln)” value is 10.2 ± 0.22.

Take “TTTTATGAAAAATGGCTTATCTGTAAAGAAGTGGAG [CACACA_negctrl_site1586]”: the “gcPBM binding intensity (ln)” value was 10.3 ± 0.36.

As for “ATAAAGAAAATATGGAGTACATTTATATCCAATATA [XGTACX_site3085]”, the “gcPBM binding intensity (ln)” value stood at 11.5 ± 1.

With “ATATTTGTAATTATTAAACACACACTAATTATATAT [CACACA_site8803]”, the “gcPBM binding intensity (ln)” value was 9.96 ± 0.16.

On to “TAACATATAATATTATGTACATATATACATATATAA [XGTACX_site7467]”, for which the “gcPBM binding intensity (ln)” value stood at 11.1 ± 0.66.

With “ATCAAATAATAGCAAACACACAAAAAATAAAAAAAA [CACACA_site4146]”, the “gcPBM binding intensity (ln)” value stood at 9.96 ± 0.15.

As for “AATGTTTTTTTTTTTTTTTTTTTTTATTTATTGTTA [CACACA_negctrl_site505]”, the “gcPBM binding intensity (ln)” value amounted to 9.68 ± 0.22.

Turning to “ATTTTTTGGAAAAGAAGTACAATGGATTTATACGTT [XGTACX_site891]”, the “gcPBM binding intensity (ln)” value turned out to be 11.5 ± 1.1.

Turning to “AAAAAATCACGACACACACACACACTAAAAAAAAAA [CACACA_site6792]”, the “gcPBM binding intensity (ln)” value worked out at 10.3 ± 0.3.

For the sequence “TTTAAATAATCTAGGTGTACTTTCCTTTATAAATGT [XGTACX_site7859]”, the “gcPBM binding intensity (ln)” value came out at 11.3 ± 0.83.

In the case of “AGAATACATATATGAACACACAGAGTTTTAAAAAAT [CACACA_site2735]”, the “gcPBM binding intensity (ln)” value turned out to be 10.1 ± 0.13.

With “AATATAAATAAAAACACACACAATGGTACCTATATA [CACACA_site7688]”, the “gcPBM binding intensity (ln)” value stood at 10.8 ± 0.47.

Take “TCAATATAAATTAGTTGTACAGTTTTTTTTAATTAT [XGTACX_site6358]”: the “gcPBM binding intensity (ln)” value was found to be 11.5 ± 0.92.

As for “TATTTCAATATATACCTTTGCTTTTTTAATATACTT [XGTACX_negctrl_site556]”, the “gcPBM binding intensity (ln)” value turned out to be 9.975 ± 0.078.

With “ATATACTTTTTTTTTTTTTTTTTAACGTTATTTATG [CACACA_negctrl_site1277]”, the “gcPBM binding intensity (ln)” value worked out at 10.1 ± 0.22.

In the case of “AAAATATATGAAAACAGTACATATAAAAATTAAAAA [XGTACX_site2594]”, the “gcPBM binding intensity (ln)” value came out at 10.8 ± 0.6.

As for “TTACACATATATATAAATATATATAAATATATATAT [CACACA_negctrl_site150]”, the “gcPBM binding intensity (ln)” value was found to be 9.58 ± 0.028.

For the sequence “ATTAATTTTGGTTCATGTACATAAGAAATAAACTCT [XGTACX_site4534]”, the “gcPBM binding intensity (ln)” value stood at 11.3 ± 0.63.

Regarding “ATTTTTATACGTTTTTTTTTTTTTTTTTTTTATTTA [CACACA_negctrl_site1142]”, the “gcPBM binding intensity (ln)” value is 9.89 ± 0.2.

Turning to “GAAAAGCATAGATGCACACATATATATATATATATA [CACACA_site2169]”, the “gcPBM binding intensity (ln)” value was 10.1 ± 0.4.

As for “GTGTTAATTTTAAATTGTACAAAATTTATATGATTT [XGTACX_site348]”, the “gcPBM binding intensity (ln)” value is 10.8 ± 0.43.

For the sequence “TATTTGTTTGAATTTTTTTTTTTTTTTTTTTATGTG [CACACA_negctrl_site966]”, the “gcPBM binding intensity (ln)” value is 9.685 ± 0.007.

“TACAGACAGAAATGCACACACATATATATATATATA [CACACA_site2283]”: the “gcPBM binding intensity (ln)” value came out at 10 ± 0.19.

In the case of “CACTACATTATGTCATAAATGCATACATAAACATAT [GTGCAC_negctrl_site513]”, the “gcPBM binding intensity (ln)” value amounted to 10.2 ± 0.28.

Turning to “TTTATATTTCAATTTTGTGCTTCGCAAATTGAGAGG [TGCATGCA_negctrl_site327]”, the “gcPBM binding intensity (ln)” value is 9.77 ± 0.12.

Turning to “TATAACATAATATAGACACACACATGTACTTATGCC [CACACA_site8547]”, the “gcPBM binding intensity (ln)” value came to 11.4 ± 0.91.

For “ATTTATATGTGGAGCAGTACGCACTCTCACAATTAA [XGTACX_site7252]”, the “gcPBM binding intensity (ln)” value came to 11.2 ± 0.93.

Consider “TAAAAATTATATATCACACATATATGTCAGTATACA [CACACA_site4624]”, for which the “gcPBM binding intensity (ln)” value amounted to 9.91 ± 0.099.

For “AAAGAAAAAAAATATAAAAAATAAAAAATAAAACAA [CACACA_negctrl_site374]”, the “gcPBM binding intensity (ln)” value was 9.735 ± 0.021.

Take “GATGTTCATCACTACACACACAAAGAAATATATATA [CACACA_site2684]”: the “gcPBM binding intensity (ln)” value was 10.1 ± 0.23.

“TTGGTATAAAATTATAGTACATAAGGTAAATATAAA [XGTACX_site4698]”: the “gcPBM binding intensity (ln)” value was found to be 11.1 ± 0.72.

Take “TAATATATGTATATATGTACATATAAATGTTATAGA [XGTACX_site2721]”: the “gcPBM binding intensity (ln)” value was 11.2 ± 0.59.

As for “CATTTAAAAGATAAAACACACATACTAATAAAAAAC [CACACA_site5417]”, the “gcPBM binding intensity (ln)” value worked out at 10.2 ± 0.18.

As for “TTTCTTTATTAAAATATTTTACATATATAATATACG [TGCATGCA_negctrl_site564]”, the “gcPBM binding intensity (ln)” value was 9.78.

With “GTAAAATATATAAAATGTACATATATTATATATATA [XGTACX_site489]”, the “gcPBM binding intensity (ln)” value came to 11 ± 0.42.

Turning to “ACTCTCTTATATTAAACACACATATATATCTGTATA [CACACA_site5489]”, the “gcPBM binding intensity (ln)” value was 10.2 ± 0.11.

“ACATATATTATTATATGTACATATATTAATTATATA [XGTACX_site3400]”: the “gcPBM binding intensity (ln)” value was found to be 11.4 ± 0.89.

As to “ATCATTTTTAAAGGAACACACAAAAAAAATTAAAAT [CACACA_site4878]”, the “gcPBM binding intensity (ln)” value amounted to 10.2 ± 0.12.

In the case of “CTTCTCTTTTTTATCATGCACTTTTTGTATAATAAT [GTGCAC_site9834]”, the “gcPBM binding intensity (ln)” value stood at 10.3 ± 0.25.

Turning to “CATTTTTTATTTCCTTGTACGAATAAAATATATTTA [XGTACX_site6844]”, the “gcPBM binding intensity (ln)” value was 11.1 ± 0.88.

On to “TATTATCGTTCTCATACACACAAAATATACATACAC [CACACA_site2643]”, for which the “gcPBM binding intensity (ln)” value stood at 10.2 ± 0.22.

As to “TACGTAAATGTGTGTGTGCACGTTATATATTAATAT [GTGCAC_site9976]”, the “gcPBM binding intensity (ln)” value amounted to 10.5 ± 0.42.

On to “AATTTAATATAATGCACACATAAAACAAAAACAAAA [CACACA_site529]”, for which the “gcPBM binding intensity (ln)” value is 10.1 ± 0.26.
